# Data: the supplement of paper PMC8728848
# Some of the results follow.
# B1: SP15308A-bot-339-19-339 (Bacteroides ovatus) (protein)
# chain: ACNNEWEDEQYEQYISFKSPIPAGGEGVTDIYVRYKEDGKVTYRLPIVVSGSTTNTLDREVHIAVDKDTLETLNIERFSIHRPGLWYTALEEDKYDFPKTVHISAGSSVEQLNIDFNLQGIDMLEKWVLPLTIVDDPSYNYKSHPRKNYAKALLRVIPFNNYSGSYTSSAMKVYTYINGKPDTNARTANKRTGYVINDNTVFFYAGLISEDLDKEVREKYKINVHFNEDGTLHMEQGDPTNKMKFELIGTPTYSKTSVMDATRPYLERRYVQIMFEYDFEDFSYGGNGVDVIPIKYKVEGSMTLQRNINTQIPDEDQQIEW
# Columns and labels:
# Experiment in all cases: glycan array binding signal (z-score within array); higher = stronger binding
# Conditions in all cases: glycan notation: IUPAC condensed, linker removed
# [1] = target: GalNAc3S(b1-4)[Fuc(a1-3)]GlcNAc
# Summary of the method: (§1)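 Glycan array data were curated from 3228 arrays in the Consortium for Functional Glycomics database and kept only where the protein sequence was available. Glycan names were converted to IUPAC-condensed notation, and columns mapping to the same glycan were averaged. The binding signal is a within-array Z-score, averaged across arrays of the same protein sequence at different concentrations or buffers and across linkers. Negative Z-scores can be read as non-binding.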
# GalNAc4S6S(b1-4)GlcNAc = target: GalNAc4S6S(b1-4)GlcNAc
# Summary of the method: as §1
# GalNAc6S(b1-4)GlcNAc = target: GalNAc6S(b1-4)GlcNAc
# Summary of the method: as §1
# Glc(a1-4)Glc = target: Glc(a1-4)Glc
# Summary of the method: as §1
# [2] = target: Glc(a1-4)Glc(a1-4)Glc(a1-4)Glc
# Summary of the method: as §1
# Glc(a1-6)Glc(a1-6)Glc = target: Glc(a1-6)Glc(a1-6)Glc
# Summary of the method: as §1
# [3] = target: Glc(a1-6)Glc(a1-6)Glc(a1-6)Glc
# Summary of the method: as §1
# Glc(b1-4)Glc = target: Glc(b1-4)Glc
# Summary of the method: as §1
# Glc(b1-6)Glc = target: Glc(b1-6)Glc
# Summary of the method: as §1
# GlcA(b1-3)Gal = target: GlcA(b1-3)Gal
# Summary of the method: as §1
# GlcA(b1-3)GlcNAc = target: GlcA(b1-3)GlcNAc
# Summary of the method: as §1
# GlcA(b1-6)Gal = target: GlcA(b1-6)Gal
# Summary of the method: as §1
# [4] = target: GlcA3S(b1-3)Gal(b1-4)GlcNAc(b1-2)Man
# Summary of the method: as §1
# [5] = target: GlcA3S(b1-3)Gal(b1-4)GlcNAc(b1-3)Gal(b1-4)Glc
# Summary of the method: as §1
# [6] = target: GlcNAc(a1-3)Gal(b1-4)GlcNAc
# Summary of the method: as §1
# [7] = target: GlcNAc(a1-4)Gal(b1-3)GlcNAc
# Summary of the method: as §1
# [8] = target: GlcNAc(a1-4)Gal(b1-4)GalNAc
# Summary of the method: as §1
# [9] = target: GlcNAc(a1-4)Gal(b1-4)GlcNAc
# Summary of the method: as §1
# [10] = target: GlcNAc(a1-4)Gal(b1-4)GlcNAc(b1-3)Gal(b1-4)Glc
# Summary of the method: as §1
# [11] = target: GlcNAc(a1-4)Gal(b1-4)GlcNAc(b1-3)Gal(b1-4)GlcNAc
# Summary of the method: as §1
# [12] = target: GlcNAc(a1-4)Gal(b1-4)GlcNAc(b1-3)Gal(b1-4)GlcNAc(b1-3)Gal(b1-4)GlcNAc
# Summary of the method: as §1
# [13] = target: GlcNAc(a1-4)Gal(b1-4)GlcNAc(b1-3)Gal(b1-4)[Fuc(a1-3)]GlcNAc(b1-3)Gal(b1-4)[Fuc(a1-3)]GlcNAc
# Summary of the method: as §1
# [14] = target: GlcNAc(a1-6)Gal(b1-4)GlcNAc
# Summary of the method: as §1
# [15] = target: GlcNAc(b1-2)Gal(b1-3)GalNAc
# Summary of the method: as §1
# [16] = target: GlcNAc(b1-2)Man(a1-3)[GlcNAc(b1-2)Man(a1-6)]Man(b1-4)GlcNAc(b1-4)GlcNAc
# Summary of the method: as §1
# [17] = target: GlcNAc(b1-2)Man(a1-3)[GlcNAc(b1-2)Man(a1-6)]Man(b1-4)GlcNAc(b1-4)[Fuc(a1-6)]GlcNAc
# Summary of the method: as §1
# [18] = target: GlcNAc(b1-2)Man(a1-3)[GlcNAc(b1-4)][GlcNAc(b1-2)Man(a1-6)]Man(b1-4)GlcNAc(b1-4)GlcNAc
# Summary of the method: as §1
# [19] = target: GlcNAc(b1-2)Man(a1-3)[GlcNAc(b1-4)][GlcNAc(b1-2)Man(a1-6)]Man(b1-4)GlcNAc(b1-4)[Fuc(a1-6)]GlcNAc
# Summary of the method: as §1
# [20] = target: GlcNAc(b1-2)[GlcNAc(b1-4)]Man(a1-3)[GlcNAc(b1-2)Man(a1-6)]Man(b1-4)GlcNAc(b1-4)GlcNAc
# Summary of the method: as §1
# [21] = target: GlcNAc(b1-2)[GlcNAc(b1-4)]Man(a1-3)[GlcNAc(b1-4)][GlcNAc(b1-2)Man(a1-6)]Man(b1-4)GlcNAc(b1-4)GlcNAc
# Summary of the method: as §1
# [22] = target: GlcNAc(b1-2)[GlcNAc(b1-4)]Man(a1-3)[GlcNAc(b1-4)][GlcNAc(b1-2)[GlcNAc(b1-6)]Man(a1-6)]Man(b1-4)GlcNAc(b1-4)GlcNAc
# Summary of the method: as §1
# [23] = target: GlcNAc(b1-2)[GlcNAc(b1-4)]Man(a1-3)[GlcNAc(b1-4)][GlcNAc(b1-2)[GlcNAc(b1-6)]Man(a1-6)]Man(b1-4)GlcNAc(b1-4)[Fuc(a1-6)]GlcNAc
# Summary of the method: as §1
# [24] = target: GlcNAc(b1-2)[GlcNAc(b1-6)]Man(a1-6)[GlcNAc(b1-2)Man(a1-3)]Man(b1-4)GlcNAc(b1-4)GlcNAc
# Summary of the method: as §1
# [25] = target: GlcNAc(b1-2)[GlcNAc(b1-6)]Man(a1-6)[GlcNAc(b1-2)Man(a1-3)]Man(b1-4)GlcNAc(b1-4)[Fuc(a1-6)]GlcNAc
# Summary of the method: as §1
# [26] = target: GlcNAc(b1-2)[GlcNAc(b1-6)]Man(a1-6)[GlcNAc(b1-4)][GlcNAc(b1-2)Man(a1-3)]Man(b1-4)GlcNAc(b1-4)GlcNAc
# Summary of the method: as §1
# GlcNAc(b1-3)Fuc = target: GlcNAc(b1-3)Fuc
# Summary of the method: as §1
# GlcNAc(b1-3)Gal = target: GlcNAc(b1-3)Gal
# Summary of the method: as §1
# [27] = target: GlcNAc(b1-3)Gal(b1-3)GalNAc
# Summary of the method: as §1
binder,measurement,setting,value
B1,glycan array binding signal (z-score),[1],-0.125
same,glycan array binding signal (z-score),GalNAc4S6S(b1-4)GlcNAc,-0.366
same,glycan array binding signal (z-score),GalNAc6S(b1-4)GlcNAc,-0.368
same,glycan array binding signal (z-score),Glc(a1-4)Glc,-0.119
same,glycan array binding signal (z-score),[2],-0.416
same,glycan array binding signal (z-score),Glc(a1-6)Glc(a1-6)Glc,-0.006
same,glycan array binding signal (z-score),[3],0.999
same,glycan array binding signal (z-score),Glc(b1-4)Glc,-0.218
same,glycan array binding signal (z-score),Glc(b1-6)Glc,-0.042
same,glycan array binding signal (z-score),GlcA(b1-3)Gal,0.164
same,glycan array binding signal (z-score),GlcA(b1-3)GlcNAc,-0.486
same,glycan array binding signal (z-score),GlcA(b1-6)Gal,0.866
same,glycan array binding signal (z-score),[4],0.245
same,glycan array binding signal (z-score),[5],-0.574
same,glycan array binding signal (z-score),[6],0.267
same,glycan array binding signal (z-score),[7],-0.025
same,glycan array binding signal (z-score),[8],0.024
same,glycan array binding signal (z-score),[9],-0.275
same,glycan array binding signal (z-score),[10],0.185
same,glycan array binding signal (z-score),[11],-0.188
same,glycan array binding signal (z-score),[12],-0.27
same,glycan array binding signal (z-score),[13],0.595
same,glycan array binding signal (z-score),[14],-0.122
same,glycan array binding signal (z-score),[15],0.906
same,glycan array binding signal (z-score),[16],-0.386
same,glycan array binding signal (z-score),[17],0.166
same,glycan array binding signal (z-score),[18],-0.365
same,glycan array binding signal (z-score),[19],-0.474
same,glycan array binding signal (z-score),[20],-0.083
same,glycan array binding signal (z-score),[21],1.11
same,glycan array binding signal (z-score),[22],-0.391
same,glycan array binding signal (z-score),[23],-0.358
same,glycan array binding signal (z-score),[24],-0.299
same,glycan array binding signal (z-score),[25],-0.15
same,glycan array binding signal (z-score),[26],0.157
same,glycan array binding signal (z-score),GlcNAc(b1-3)Fuc,0.371
same,glycan array binding signal (z-score),GlcNAc(b1-3)Gal,-0.64
same,glycan array binding signal (z-score),[27],-0.206
